Laboratory results: patent US11542275B2, “Substituted imidazolidin-2-one derivatives as PRMT5 inhibitors” (Aurigene Discovery Technologies Limited, priority 2018, dated 2023)

Biological target: PRMT5/MEP50 Complex (Homo sapiens (Human), UniProt O14744)
Assay: PRMT5 inhibition based on TR-FRET assay
Type: biochemical
Details: 32 nM PRMT5:MEP50 complex, 50 nM Histone-H4 peptide, 1 μM SAM, 90 minutes at room temperature
Excerpt: Protein arginine methyltransferase 5 (PRMT5) is a type II arginine methyltransferase that catalyze mono- and symmetric demethylation on arginine residues of histone or non-histone proteins in presence of S-adenosylmethionine (AdoMet or SAM) a cofactor responsible for donating the methyl group. PRMT5 is reported to be overexpressed in several human cancers. To identify compounds that inhibit the PRMT5 and decrease its activity, a TR-FRET based assay has been established. Time-resolved fluorescence resonance energy transfer (TR-FRET) HTS assays are homogeneous proximity assays where the interaction of two dye-labeled binding partners is detected by the energy transfer between a donor and an acceptor dye, and the subsequent light emission by the acceptor dye. PRMT5 catalyzes Histone H4 peptide which is biotin tagged to the Lysine amino acid at carboxyl end, in presence of S-adenosyl-1-methionine (SAM) to methylate the peptide. The antibody specific to mono methylated H4 peptide (H4R3) with Ig conjugate binds to the methylated peptide, indirectly binding to the Europium lanthanide. SureLight Allophycocyanin-Streptavidin binds to the biotin tag of the peptide, therefore accepting the energy transferred from the Europium lanthanide. This energy transfer between Europium to SureLight Allophycocyanin is a direct measure of the activity/inhibition of the PRMT5 enzyme.
Assay buffer: 20 mM BICINE (pH 7.6), 25 mM NaCl, 2 mM DTT, 0.01% Tween-20 and 0.01% BSA.
The compound dilutions were prepared as 7.5% DMSO stock solutions in assay buffer. To 2 μL (7.5×) of test compound, 5 μL of PRMT5 enzyme prepared in assay buffer (Final concentration of 32 nM in 15 μL reaction volume) was added and allowed for 30 minutes pre-incubation time in a white polystyrene 384-well plate at room temperature. […] The plates were then read on Victor-3 with Excitation at 340 nm and Emissions collected at 615 and 665 nm in TR-FRET protocol. […]

| SMILES | IC50 [µM] |
| --- | --- |
| O=C1N(Cc2ccc(N3C4COCC3C4)cn2)CCN1C[C@H](O)CN1CCc2ccccc2C1 [Compound 29, 1-((5-(3-oxa-6-azabicyclo[3.1.1]heptan-6-yl)pyridin-2-yl)methyl)-3-((R)-3-(3,4-dihydroisoquinolin-2(1H)-yl)-2-hydroxypropyl)imidazolidin-2-one] | 0.163 |
| CC(=O)N1CCN(c2ccc(CN3CCN(C[C@H](O)CN4CCc5ccccc5C4)C3=O)nc2)C(C)C1 (stereo partly drawn) [Compound 21, 1-((5-(4-acetyl-2-methylpiperazin-1-yl)pyridin-2-yl)methyl)-3-((R)-3-(3,4-dihydroisoquinolin-2(1H)-yl)-2-hydroxypropyl)imidazolidin-2-one] | 0.037 |
| O=C1N(Cc2cnc(N3C4CCC3COC4)cn2)CCN1C[C@H](O)CN1CCc2ccccc2C1 [Compound 24, 1-((5-(3-oxa-8-azabicyclo[3.2.1]octan-8-yl)pyrazin-2-yl)methyl)-3-((R)-3-(3,4-dihydroisoquinolin-2(1H)-yl)-2-hydroxypropyl)imidazolidin-2-one] | 0.234 |
